The results in this text go back to paper PMC4242493.

Some of the results follow. The list includes weakly bound sequences.

For this experiment, the target named is MaxL homodimer (UniProt P61244). Nature of the experiment: universal protein-binding microarray (PBM). To be noted: PBS-based mixture, 10 nM His-tagged protein dimer, 2% milk, 200 ng/uL BSA, 50 ng/uL salmon testes DNA, 0.02% TX-100; detection with Alexa 488 anti-His …; high values mean tight binding; most listed sequences are background and not binding sites; double strand, one strand shown.
Chain of UniProt P61244 (P61244 whole entry): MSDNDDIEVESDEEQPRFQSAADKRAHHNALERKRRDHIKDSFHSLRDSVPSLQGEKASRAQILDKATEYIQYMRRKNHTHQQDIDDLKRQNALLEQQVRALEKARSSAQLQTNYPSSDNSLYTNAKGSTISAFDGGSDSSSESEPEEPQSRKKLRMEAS
For the sequence AAGAGCAA, the binding signal (normalized occupancy) was found to be 0.0747.

For the sequence ACAACGGT, the binding signal (normalized occupancy) came out at 0.0733. As to CGACCGAA, the binding signal (normalized occupancy) amounted to 0.0668. For the sequence ATAGTAAC, the binding signal (normalized occupancy) amounted to 0.0803. For GGGAAAGA, the binding signal (normalized occupancy) was found to be 0.0722. For ACCCGCGG, the binding signal (normalized occupancy) is 0.0753. Consider GCGGACCA, for which the binding signal (normalized occupancy) worked out at 0.0739. With CGGATTTC the figure was 0.0673; with CCACAACA, 0.0784.

Take AACTAGAA: the binding signal (normalized occupancy) worked out at 0.0733. AGATCTCA: the binding signal (normalized occupancy) came to 0.0781. Turning to GGGCTCAA, the binding signal (normalized occupancy) came to 0.0662. For the sequence ATTCTGAC, the binding signal (normalized occupancy) was 0.0729.

With TAATTTGA, the binding signal (normalized occupancy) was 0.0725. To ACCTCATG belongs 0.113; to AGAGTTCA, 0.072. In the case of CTTCGAGC, the binding signal (normalized occupancy) was determined as 0.0654. Consider CTGCTGTA, for which the binding signal (normalized occupancy) turned out to be 0.0714.

Turning to TACACAGA, the binding signal (normalized occupancy) stood at 0.0759. For the sequence CCCACAGA, the binding signal (normalized occupancy) turned out to be 0.0807.

Turning to AGGTAAAT, the binding signal (normalized occupancy) is 0.0799. Take CGCATCCG: the binding signal (normalized occupancy) was found to be 0.0736.

Regarding CCGTCCTA, the binding signal (normalized occupancy) was found to be 0.0728. CGACGAAA: the binding signal (normalized occupancy) was determined as 0.0706. With CCTCGCTC, the binding signal (normalized occupancy) is 0.072.

For AAAGTGGA, the binding signal (normalized occupancy) stood at 0.0743. For ACAGAGAC, the binding signal (normalized occupancy) was determined as 0.0758. Consider ATGAACAG, for which the binding signal (normalized occupancy) was 0.0797. To ACGGAGTC belongs 0.0685; to GTGATACA, 0.0838; to CACTTCTC, 0.074. For GCTTAACA, the binding signal (normalized occupancy) was determined as 0.0798. With CGGCCTAC, the binding signal (normalized occupancy) came to 0.0723. In the case of CATACATC, the binding signal (normalized occupancy) was 0.0856. With AACAATCA, the binding signal (normalized occupancy) turned out to be 0.0758. For the sequence CAAGAATG, the binding signal (normalized occupancy) was found to be 0.0745. Take AGCCGAAG: the binding signal (normalized occupancy) is 0.0697. Regarding AAGGGGTA, the binding signal (normalized occupancy) is 0.0794. ACACCTTA: the binding signal (normalized occupancy) was 0.0753.

Consider GCACGATA, for which the binding signal (normalized occupancy) worked out at 0.0812. For the sequence ATCCCGTC, the binding signal (normalized occupancy) was 0.0762.

As for AGAGTCGC, the binding signal (normalized occupancy) stood at 0.0764. Consider ACTTAGGA, for which the binding signal (normalized occupancy) stood at 0.072.

On to ATAGACCA, for which the binding signal (normalized occupancy) came out at 0.0742.

As to CAACGCAA, the binding signal (normalized occupancy) is 0.0717.

In the case of CCCTAAAC, the binding signal (normalized occupancy) turned out to be 0.0722.

Take ACTGATAC: the binding signal (normalized occupancy) came to 0.0881. To CACGTCCC belongs 0.081; to CGTATATC, 0.0793; to ATGGCCGG, 0.0713. In the case of GCATGCGC, the binding signal (normalized occupancy) was determined as 0.121. CTTCGCAC: the binding signal (normalized occupancy) came to 0.0771. As to CACATACG, the binding signal (normalized occupancy) was found to be 0.0784.

Take ACGCGCCG: the binding signal (normalized occupancy) is 0.072. With TCCTTCAA, the binding signal (normalized occupancy) is 0.0731.

In the case of ACCGATCA, the binding signal (normalized occupancy) came to 0.0748. Take GGGGATTA: the binding signal (normalized occupancy) was 0.0801.

Regarding GGCTTGGA, the binding signal (normalized occupancy) is 0.0761. With CCAGCTCC the figure was 0.0698; with AACCACAC, 0.0854; with ATTATTCG, 0.0765.

In the case of AATAGGAA, the binding signal (normalized occupancy) amounted to 0.0757. With AAGCCAGG the figure was 0.0707. In the case of AGAAACTG, the binding signal (normalized occupancy) was 0.0741. For the sequence AACCCGGT, the binding signal (normalized occupancy) amounted to 0.0737.

In the case of ATCAAGTA, the binding signal (normalized occupancy) was 0.0786. On to ACTAGTTG, for which the binding signal (normalized occupancy) came out at 0.0718. With CCCTCCGA the figure was 0.069; with CTTTAGAC, 0.0732. For the sequence AAGTCAGA, the binding signal (normalized occupancy) came out at 0.0709. Consider AATTGTAC, for which the binding signal (normalized occupancy) stood at 0.0791. AACATGGA: the binding signal (normalized occupancy) amounted to 0.0836. Turning to ATAGCCGA, the binding signal (normalized occupancy) is 0.074. For GTAATAAA, the binding signal (normalized occupancy) turned out to be 0.076. Consider TACGTGAA, for which the binding signal (normalized occupancy) was determined as 0.0794. CTCTCGAA: the binding signal (normalized occupancy) amounted to 0.0729. In the case of AGCCTGGA, the binding signal (normalized occupancy) is 0.0697. Regarding CATAGTCG, the binding signal (normalized occupancy) was 0.0739. Consider AAGGGGCC, for which the binding signal (normalized occupancy) amounted to 0.0717. As for GACTCAAA, the binding signal (normalized occupancy) is 0.0733. Turning to CGTTCCTA, the binding signal (normalized occupancy) turned out to be 0.0763. AGGAGGAA: the binding signal (normalized occupancy) turned out to be 0.0737. As to GTTCGAAC, the binding signal (normalized occupancy) came out at 0.0648. Take AGACCACC: the binding signal (normalized occupancy) amounted to 0.0819. For the sequence GCTGTTAC, the binding signal (normalized occupancy) stood at 0.0743.

Take AACCATCT: the binding signal (normalized occupancy) was 0.0762. Take CGCACTCA: the binding signal (normalized occupancy) worked out at 0.0765. With CCTGGTAG, the binding signal (normalized occupancy) worked out at 0.0693. With ACCCCAGT, the binding signal (normalized occupancy) was 0.0784. On to CTGGCAAA, for which the binding signal (normalized occupancy) turned out to be 0.0693.

As to CACTCGCA, the binding signal (normalized occupancy) amounted to 0.0727. As to GACTATGA, the binding signal (normalized occupancy) is 0.0779. GCCGGTCC: the binding signal (normalized occupancy) turned out to be 0.0685. Turning to ATAACTCC, the binding signal (normalized occupancy) was determined as 0.0792. In the case of GACCTTCA, the binding signal (normalized occupancy) is 0.0715. In the case of ATTGCTTA, the binding signal (normalized occupancy) was found to be 0.0771. With AGTTTGTA the figure was 0.0756; with AGGGACAT, 0.0787; with AGGTCGCC, 0.0768. For GCAACGGA, the binding signal (normalized occupancy) worked out at 0.0695. Regarding GATGTCAC, the binding signal (normalized occupancy) was 0.0839. For the sequence GTCAACAA, the binding signal (normalized occupancy) stood at 0.0764.

For the sequence GGTTGAAA, the binding signal (normalized occupancy) stood at 0.0729.

AGGATTAT: the binding signal (normalized occupancy) turned out to be 0.079. In the case of CTGGCTGC, the binding signal (normalized occupancy) was determined as 0.0736. Regarding CAGTGTAC, the binding signal (normalized occupancy) came out at 0.0781. Regarding GAACAACC, the binding signal (normalized occupancy) stood at 0.0784.

Turning to AGGTGTTA, the binding signal (normalized occupancy) is 0.0801. Take CATCAACG: the binding signal (normalized occupancy) stood at 0.0728. ACTTGTCA: the binding signal (normalized occupancy) was 0.0792. In the case of ACTTGAAG, the binding signal (normalized occupancy) came out at 0.0774.

As for TATTTAAA, the binding signal (normalized occupancy) came to 0.0789. For the sequence CCGGAACA, the binding signal (normalized occupancy) was 0.0684. With TAGTCCGA the figure was 0.0692.

Regarding TAAGTAAA, the binding signal (normalized occupancy) turned out to be 0.0749. On to TACCGTGA, for which the binding signal (normalized occupancy) was determined as 0.0755. Regarding CTCCCGAA, the binding signal (normalized occupancy) came to 0.0776.

For CCGTTCAC, the binding signal (normalized occupancy) amounted to 0.0771. With AGACTACT the figure was 0.0721; with CTGTGTTA, 0.079. Turning to CCGTACGG, the binding signal (normalized occupancy) was 0.0696.

On to ATAGGTCC, for which the binding signal (normalized occupancy) was found to be 0.0741.

On to CAAAAAGC, for which the binding signal (normalized occupancy) is 0.0682. Turning to ACTAGTCG, the binding signal (normalized occupancy) was found to be 0.0757.

As to AAGGCCAC, the binding signal (normalized occupancy) is 0.0803. Turning to TATAGTCA, the binding signal (normalized occupancy) came out at 0.0774. For GAGCAATC, the binding signal (normalized occupancy) came to 0.0703. With CGACGACC the figure was 0.0732; with GTCCTAAC, 0.0727. With GGAGCGCA, the binding signal (normalized occupancy) worked out at 0.0679. With AATAAAAC, the binding signal (normalized occupancy) was 0.0798. For the sequence AATTAGTG, the binding signal (normalized occupancy) was determined as 0.0813.

As for ATACGTTC, the binding signal (normalized occupancy) stood at 0.0794.

In the case of AGGACGAC, the binding signal (normalized occupancy) was found to be 0.0761. For ACTACCTC, the binding signal (normalized occupancy) was found to be 0.0755. For GAGTAGTA, the binding signal (normalized occupancy) came to 0.0771. With CCTATTTA the figure was 0.0772; with CTGATACC, 0.0855; with ACACAGCC, 0.0758. Consider CATTGTTA, for which the binding signal (normalized occupancy) stood at 0.0806. Consider AGGAGTAG, for which the binding signal (normalized occupancy) was 0.0709. For ACGGTCGA, the binding signal (normalized occupancy) is 0.0702. With AAGGTTAG the figure was 0.0752; with AATCAAGT, 0.0689.

Consider CATGATTC, for which the binding signal (normalized occupancy) came out at 0.0938. For AGTCGACC, the binding signal (normalized occupancy) was 0.0697.

In the case of GGTATGAA, the binding signal (normalized occupancy) was 0.0841. To GGCGGTGA belongs 0.0725; to AAAGACTA, 0.0705. To GTGCTGCA belongs 0.0891. With CGTCGCTA, the binding signal (normalized occupancy) was determined as 0.0683.

In the case of ATTAAGCC, the binding signal (normalized occupancy) turned out to be 0.0713. Consider AGGTACAC, for which the binding signal (normalized occupancy) is 0.0784. As for ATGCCAAA, the binding signal (normalized occupancy) is 0.0777. On to AGTATTCC, for which the binding signal (normalized occupancy) stood at 0.0798. As to CAAGATTA, the binding signal (normalized occupancy) came out at 0.0746. As to TCACGAAA, the binding signal (normalized occupancy) was 0.0755. Turning to GGAACGCA, the binding signal (normalized occupancy) is 0.0749. On to GTACCGAA, for which the binding signal (normalized occupancy) was 0.0718. Take AGGTTAGC: the binding signal (normalized occupancy) worked out at 0.0738. On to CGAATCAC, for which the binding signal (normalized occupancy) stood at 0.0792.

With TAGAAGCA, the binding signal (normalized occupancy) is 0.082. With CTATCCAA, the binding signal (normalized occupancy) worked out at 0.0781. TGCACAAA: the binding signal (normalized occupancy) stood at 0.0748. With AACCGTGT the figure was 0.0763; with CAAGACCC, 0.0703; with CGAGCCAG, 0.0662. As to AATGCGAA, the binding signal (normalized occupancy) was determined as 0.0737. Turning to CTAGCATC, the binding signal (normalized occupancy) was found to be 0.0748. Take CGCTTGCC: the binding signal (normalized occupancy) worked out at 0.0718. With GTGACCCA the figure was 0.0762.

As to CCTCCTCA, the binding signal (normalized occupancy) stood at 0.0764.
